# The campaign covered roughly 310,000 compounds. About 2,200 (0.71%) showed an effect of 50% or more. Effects have a minus sign here. The list shows a part of the results.
# Biological target: human ether-à-go-go-related gene (hERG) potassium channel (human, UniProt Q12809)
# Experiment: primary screen, population patch clamp on CHO cells stably expressing hERG
# Chain of human ether-à-go-go-related gene (hERG) potassium channel (Q12809 whole entry, looked up): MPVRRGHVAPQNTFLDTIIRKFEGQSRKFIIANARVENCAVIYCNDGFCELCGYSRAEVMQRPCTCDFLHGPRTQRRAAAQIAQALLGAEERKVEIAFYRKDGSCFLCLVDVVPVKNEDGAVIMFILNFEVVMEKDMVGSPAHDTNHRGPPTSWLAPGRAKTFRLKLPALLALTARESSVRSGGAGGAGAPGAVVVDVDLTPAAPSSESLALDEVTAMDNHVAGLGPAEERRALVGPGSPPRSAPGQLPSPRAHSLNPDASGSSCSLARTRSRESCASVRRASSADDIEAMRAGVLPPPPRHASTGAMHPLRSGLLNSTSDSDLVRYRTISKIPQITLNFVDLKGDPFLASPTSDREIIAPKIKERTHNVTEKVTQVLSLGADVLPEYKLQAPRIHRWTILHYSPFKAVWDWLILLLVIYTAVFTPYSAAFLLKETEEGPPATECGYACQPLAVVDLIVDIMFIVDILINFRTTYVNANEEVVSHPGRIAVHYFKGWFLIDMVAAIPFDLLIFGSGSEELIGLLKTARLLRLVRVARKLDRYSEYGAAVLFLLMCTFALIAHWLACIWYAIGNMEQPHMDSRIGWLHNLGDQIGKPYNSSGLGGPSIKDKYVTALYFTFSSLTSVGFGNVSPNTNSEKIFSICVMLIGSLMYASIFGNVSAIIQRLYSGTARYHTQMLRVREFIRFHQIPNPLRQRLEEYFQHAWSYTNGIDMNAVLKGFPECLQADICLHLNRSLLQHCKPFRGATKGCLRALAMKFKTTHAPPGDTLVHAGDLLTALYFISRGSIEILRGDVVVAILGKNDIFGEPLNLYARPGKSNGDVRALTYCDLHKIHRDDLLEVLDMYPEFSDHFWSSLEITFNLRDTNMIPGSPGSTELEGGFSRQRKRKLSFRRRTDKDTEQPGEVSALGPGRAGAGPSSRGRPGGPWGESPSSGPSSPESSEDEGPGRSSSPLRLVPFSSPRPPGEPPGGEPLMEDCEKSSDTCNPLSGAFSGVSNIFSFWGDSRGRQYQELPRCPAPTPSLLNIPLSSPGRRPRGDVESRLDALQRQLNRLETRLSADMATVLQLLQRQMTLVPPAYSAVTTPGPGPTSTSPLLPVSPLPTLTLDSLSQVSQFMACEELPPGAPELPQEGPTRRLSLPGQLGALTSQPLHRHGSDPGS
row,Structure (SMILES),"hERG current change (%, negative = inhibition) at 1uM"
1,Cc1oc2c(c1C(=O)N1CCOCC1)C(=O)c1ccccc1C2=O,18.5%
2,COC(=O)Cn1c(O)c(N=NC(=O)CNC(=O)c2ccc3c(c2)OCCO3)c2ccccc21,11%
3,CCCC[C@H]1COCCS(=O)(=O)N1Cc1cccc(F)c1,-11.7%
4,Cn1c(=O)oc2cc(S(=O)(=O)Nc3ccc(F)cc3)ccc21,5.46%
5,CC1=C(C(=O)OCC2CCCO2)C(c2ccccc2)C2=C(CC(C)(C)CC2=O)N1 (stereo not shown),10.4%
6,CCN(c1ccccc1)S(=O)(=O)c1nnc(NC(=O)CC(C)C)s1,1.44%
7,COc1ccc(-c2cn(-c3ccc(OC)cc3)c(=S)[nH]2)cc1,10.6%
8,O=S(=O)(c1ccc2nc(N3CCN(c4ccccc4)CC3)ccc2c1)N1CCCCC1,16.8%
9,O=C(Nc1ccncc1)Nc1cccc(Cl)c1,6.49%
10,Cc1ccc2oc(=O)c3cnn(CC(=O)N4CCN(c5ccccn5)CC4)c3c2c1,-22.4%
11,CCCCCN(C(=O)CCC(=O)OC(C)C(=O)NCc1ccccc1)c1c(N)n(CCCC)c(=O)[nH]c1=O (stereo not shown),8.83%
12,CCOC(CNC(=O)c1ccc2c(c1)ncn2-c1ccccc1OC)OCC,9.06%
13,COc1cccc(C(=O)Nc2nc3c(c(=O)[nH]2)CCCC3)c1,14.7%
14,CCN1C[C@]2(COC)CC[C@H](O)[C@@]34C5C[C@H]6[C@H](O)C5[C@](O)(C[C@H]6OC)[C@@H]([C@H](OC)C23)[C@@H]14 (stereo partly shown),11.4%
15,Cc1c(Cl)ccc2c(C(=O)Nc3cc(C(C)(C)C)on3)cc(-c3ccccn3)nc12,6.02%
16,CSc1nncc(/C(C)=N\Nc2ccccc2)n1,0.897%
17,CCOC(=O)c1cn(CC)c2c(ccc3ccccc32)c1=O,16%
18,O=C(COC(=O)c1ccc2c(c1[N+](=O)[O-])C(=O)c1ccccc1C2=O)NC1CC1,4.36%
19,O=C(CCl)Nc1ccc(N2CCCCCC2)cc1,13.9%
20,COc1ccccc1N1CCN(Cc2cc(=O)c(OCC(=O)NC(C)C)co2)CC1,14.9%
21,COc1cc(CNCc2ccc(OC)c(OC)c2OC)cc(OC)c1,-1.39%
22,C[C@]12CC[C@@H]3c4ccc(OS(=O)(=O)[O-])cc4CC[C@H]3[C@@H]1CCC2=O.[Na+],12.7%
23,Cc1ccc(-c2csc3nc(CSc4nnc(-c5ccc(Cl)cc5)n4C)[nH]c(=O)c23)cc1,5.73%
24,COc1ccc(C(CNC(=O)c2cc(=O)[nH]c3ccccc23)N2CCCC2)cc1 (stereo not shown),9.77%
25,C#CCSc1nnnn1-c1cccc(Cl)c1,2.71%
26,CCCSc1nc2c(c(=O)[nH]c(=O)n2C)n1Cc1ccccc1,2.13%
27,Cc1ccccc1N1CC(=O)N(c2ccccc2C)CC1=O,4.9%
28,O=C(O)c1ccc(N2C(=O)/C(=C\c3ccccc3)N=C2c2ccccc2)cc1,8.09%

row,Structure (SMILES),"hERG current change (%, negative = inhibition) at 1uM"
1,N=c1c(S(=O)(=O)c2ccc(Cl)cc2)cc2c(=O)n3ccccc3nc2n1C1CCCC1,13.9%
2,C/C(=N/NC(=O)C1CCN(S(=O)(=O)c2ccc(C)cc2)CC1)c1cccc([N+](=O)[O-])c1,10.8%
3,O=C(Nc1cccc(Cl)c1)Nc1nccs1,4.99%
4,O=S(=O)(c1ccccc1)N1CCN=C1SCc1ccc(Cl)cc1,5.15%
5,CCOC(=O)N1CCC(NC(=O)C2=C(C)C(=O)OC23CCC(C)CC3)CC1 (stereo not shown),2.98%
6,COCCN1CCN(C(=O)c2cc(COc3ccc(Cl)cc3OC)on2)CC1,8.2%
7,CCOc1ccc(S(=O)(=O)NCc2cccnc2)cc1C,11.6%
8,O=C(Nc1nnc(SCc2cccc(F)c2)s1)c1ccco1,0.98%
9,Cc1c(S(=O)(=O)N2CCN(c3cccc(Cl)c3)CC2)c(=O)n(C)c(=O)n1C,5.16%
10,CCCc1c(C(=O)N/N=C/c2c(OC)ccc3ccccc23)nnn1-c1nonc1N,9.21%
11,CC(=O)c1cccc(NC(=O)C2=CN3CCS(=O)(=O)N=C3C=C2)c1,14.7%
12,COc1ccccc1CNc1cc(-c2ccccc2)ccc1OC,13.1%
13,CCOc1ccccc1NC(=O)CCC(=O)O,-12.3%
14,O=C1OC(c2ccc(Br)cc2)=N/C1=C\N1CCCCC1,16.2%
15,Cc1ccc(-c2csc(NC(=O)c3c(C)noc3C)n2)cc1,-0.623%
16,Cc1ccc(C(=O)COC(=O)c2cccc(N3C(=O)c4c(C)nc5ccccc5c4C3=O)c2)cc1C,1.85%
17,O=C(NCCc1ccccc1)C1CCCN1C(=O)Nc1ccc(F)cc1 (stereo not shown),9.53%
18,CCCn1c(N)c(N(CCOC)C(=O)c2cc(S(=O)(=O)N3CCCCCC3)ccc2OC)c(=O)[nH]c1=O,1.73%
19,CCN1C(=O)CC(NNC(=O)c2ccccc2)C1=O (stereo not shown),-5.94%
20,Cc1cccc(OCCNC(=O)CCNS(=O)(=O)c2ccc3ccccc3c2)c1,6.04%
21,Cc1ccc(-c2cc(C(F)F)n3ncc(C(=O)NCc4ccco4)c3n2)cc1,8.75%
22,COc1ccc(CCCc2n[nH]c(=S)o2)cc1,9.17%
23,CC(OC(=O)C1=Cc2ccccc2OC1)C(=O)NCc1ccco1 (stereo not shown),10.6%
24,O=C1c2ccccc2C(=O)N1CCc1nn[nH]n1,15.2%
25,O=C(Nc1ccon1)c1csc2ccccc12,10.9%
26,Cc1ccc(N(C(=O)Cn2nnc3ccccc32)C(C(=O)NCc2ccccc2)c2ccccn2)cc1 (stereo not shown),2.5%
27,CC1CCCN(C(=O)COC(=O)c2ccc(=O)n(Cc3ccccc3)n2)C1 (stereo not shown),11.7%

# — PMC4336329 (PLoS ONE, 2015)
